Data taken from paper PMC4336329 (PLoS ONE, 2015).
Out of some 310,000 compounds screened, about 14,000 (4.5%) showed an effect of 50% or more. Effects have a minus sign here. This is one part of the list.

The molecules below were run against human ether-à-go-go-related gene (hERG) potassium channel (human, UniProt Q12809) (assay: primary screen, population patch clamp on CHO cells stably expressing hERG).
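Note: peak tail current of the secondary pulse compared with the same well before compound.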

Sequence of human ether-à-go-go-related gene (hERG) potassium channel (Q12809 whole entry, looked up): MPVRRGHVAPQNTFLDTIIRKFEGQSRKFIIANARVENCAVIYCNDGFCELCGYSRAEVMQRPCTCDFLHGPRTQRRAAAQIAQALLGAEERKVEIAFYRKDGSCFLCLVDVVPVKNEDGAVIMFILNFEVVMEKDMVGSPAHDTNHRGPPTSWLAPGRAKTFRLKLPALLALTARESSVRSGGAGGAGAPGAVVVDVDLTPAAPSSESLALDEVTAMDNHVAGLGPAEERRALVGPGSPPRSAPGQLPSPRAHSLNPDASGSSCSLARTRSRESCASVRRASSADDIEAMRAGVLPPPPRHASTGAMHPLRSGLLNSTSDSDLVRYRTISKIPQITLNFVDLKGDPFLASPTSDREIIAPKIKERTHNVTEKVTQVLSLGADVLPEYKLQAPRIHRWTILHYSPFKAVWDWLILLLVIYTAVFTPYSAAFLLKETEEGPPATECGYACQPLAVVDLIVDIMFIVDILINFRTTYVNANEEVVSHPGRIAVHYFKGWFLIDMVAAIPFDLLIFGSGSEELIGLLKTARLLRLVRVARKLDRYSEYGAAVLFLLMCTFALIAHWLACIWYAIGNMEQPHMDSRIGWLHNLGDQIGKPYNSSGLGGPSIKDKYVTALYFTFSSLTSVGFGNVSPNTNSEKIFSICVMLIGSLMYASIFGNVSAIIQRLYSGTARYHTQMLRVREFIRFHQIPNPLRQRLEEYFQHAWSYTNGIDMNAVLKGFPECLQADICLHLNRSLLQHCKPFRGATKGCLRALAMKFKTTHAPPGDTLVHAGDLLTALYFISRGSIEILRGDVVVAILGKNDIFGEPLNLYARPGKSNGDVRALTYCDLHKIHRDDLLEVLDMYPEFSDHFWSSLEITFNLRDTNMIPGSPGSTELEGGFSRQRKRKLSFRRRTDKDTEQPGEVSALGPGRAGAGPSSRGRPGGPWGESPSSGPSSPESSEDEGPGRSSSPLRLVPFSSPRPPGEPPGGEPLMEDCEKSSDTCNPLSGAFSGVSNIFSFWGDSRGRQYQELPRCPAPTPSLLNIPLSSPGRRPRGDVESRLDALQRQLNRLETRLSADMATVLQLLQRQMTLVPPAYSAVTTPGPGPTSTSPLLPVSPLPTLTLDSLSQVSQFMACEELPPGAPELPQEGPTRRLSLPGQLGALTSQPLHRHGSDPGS

Compound	hERG current change (%, negative = inhibition) at 10uM [%]
NC(=O)CNc1n[nH]c(=S)[nH]c1=O	-1.64
OCC1CCCCN1C(=S)Nc1cccc(Cl)c1 (centres unmarked)	11.6
O=C(CC1NC(=S)NC1=O)c1ccc(Cl)cc1 (centres unmarked)	32.8
O=C(CSc1n[nH]c(-c2ccccc2Br)n1)NCCN1C(=O)CSC1=O	22.8
CCc1ccc2oc(=O)cc(CN3CCN(CCO)CC3)c2c1	-14.9
O=C(COC(=O)Cc1ccsc1)NC(c1ccccc1)c1ccccc1	9.47
NC(=O)c1nsc(C(=O)N(Cc2cccnc2)C(C(=O)NCc2ccc(F)cc2)c2ccc(F)cc2)c1N (centres unmarked)	0.71
COc1ccc2cc(C(C)C(=O)N3CCC(C(N)=O)CC3)ccc2c1 (centres unmarked)	17.1
CC1=NNC(=O)C1CCC(=O)N/N=C/c1ccccc1 (centres unmarked)	11.3
COc1ccc(/C=C(/C#N)C(=O)Nc2cccnc2)cc1OC	-1.83
Cc1cc(C)cc(NC(=O)N2CCC(NC(=O)c3ccc(F)cc3)CC2)c1	-35.5
Cc1cc(C)nc(N(C#N)Cc2ccc([N+](=O)[O-])cc2)n1	-26.6
Cc1ccc(OCc2nc(C#N)c(N3CCCCC3)o2)cc1	-4.24
O=S(=O)(NCCc1cn2ccccc2n1)c1ccc2c(c1)CCCC2	-19.1
CN=C(Cc1ccccc1)C1=C(O)CC(C)(C)CC1=O	36.8
COc1ccc(CNC(=O)CN(c2ccc(OC)cc2)S(=O)(=O)c2c(C)nn(C)c2C)cc1	-18.7
O=S(=O)(c1cccc2nsnc12)N1CCNCC1	1.59
CC1CCCCN1CCNC(=O)c1ccc2c(=O)n(Cc3ccc(Cl)cc3)c(=S)[nH]c2c1 (centres unmarked)	-50.9
COc1ccc(C(=O)COc2ccccc2N2C(=O)C3C4C=CC(C4)C3C2=O)cc1 (centres unmarked)	-5.79
OCCCc1ccc(O)c(O)c1	-2.3
COC(=O)c1cc(NC(=O)Cc2cc(OC)c(OC)c(OC)c2)cc(C(=O)OC)c1	7.38
CC1CCCN(S(=O)(=O)c2cccc3nonc23)C1 (centres unmarked)	20.6

Compound	hERG current change (%, negative = inhibition) at 10uM [%]
CCN(CC)CCn1c(=S)[nH]c2cc(Cl)ccc2c1=O	-63.2
COc1cc(C(=O)NCC(=O)N2CCN(S(=O)(=O)c3cc(C)ccc3C)CC2)cc(OC)c1OC	-20.9
O=c1[nH]ncc(NCCCO)c1Cl	8.72
O=C(CCNC(=O)N1CC(=O)Nc2ccccc21)Nc1cccc(Cl)c1	8.44
C#CCSc1nc(N)c2c(n1)OC(N)=C(C#N)C2c1cccnc1 (centres unmarked)	-7.78
CCOC(=O)c1ccc(S(=O)(=O)NNC(=O)COc2cccc(C)c2)cc1	34.6
CCc1ccc(NC(=O)C2CCC(CNC(=O)[C@@H]3Cc4ccccc4CN3)CC2)cc1 (some centres unmarked)	4.23
O=C(Nc1cc(S(=O)(=O)N2CCOCC2)ccc1N1CCOCC1)c1cn2ccccc2n1	-52.3
Cc1ccc(Cl)cc1N1CCN(S(C)(=O)=O)CC1	-5.31
Cc1c(Cl)cccc1NC(=O)Nc1ccccc1C(N)=O	19
Cc1nn(Cc2c(Cl)cccc2Cl)c(C)c1NC(=O)CCCn1nc(C)c([N+](=O)[O-])c1C	-8.69
CC(NC(=O)c1ccc(Br)cc1)c1ccc2c(c1)CCCC2 (centres unmarked)	-14.6
CC(C(=O)OCn1nnc2ccccc2c1=O)N1C(=O)c2ccccc2C1=O (centres unmarked)	-0.386
O=C(CN(c1cccc([N+](=O)[O-])c1)S(=O)(=O)c1ccccc1)N(Cc1ccccc1)Cc1ccccc1	15.3
COc1cccc(C2CC(=O)Nc3cc4c(cc32)OCCO4)c1OC(C)C (centres unmarked)	7.62
Cn1nnc2cc(C(=O)Nc3ccc(Cl)cc3)ccc21	-3.78
CC(=O)N1c2ccc(S(=O)(=O)NCC3CCC(C(=O)NC4CCC(C)CC4)CC3)cc2CC1C (centres unmarked)	-3.24
Cc1nn(C(C)c2nc(-c3ccccc3)no2)c(C)c1[N+](=O)[O-] (centres unmarked)	-23.7
CCOc1ccc(NC(=O)CN2C(=O)c3ccccc3C2=O)cc1	4.71
Cc1ccccc1N1CC(=O)Nc2c(oc3nc(-c4ccccc4)cc(C)c23)C1=O	-0.593
NC(=O)c1ccc(-c2ccccc2F)cc1	-7.68
O=C(c1ccc2nc(-c3ccco3)c(-c3ccco3)nc2c1)N1CCN(c2ccccc2)CC1	-15.4

Compound	hERG current change (%, negative = inhibition) at 10uM [%]
Cc1ccc(S(=O)(=O)N2CCC(C(=O)O)CC2)cc1C(=O)O	9.33
N#Cc1nc(Cc2ccccc2)oc1N1CCN(c2cccc(Cl)c2)CC1	20
COc1cc2c(cc1OC)C(=O)NCC(C)(C)O2	-6.92
COC(=O)c1oc2ccc(Cl)cc2c1N	-5.27
COc1ccccc1C(=O)NCCN1CCN(c2ccccc2)CC1.Cl	-12.2
COCCCNC(=O)c1c(N)n(-c2cccc(S(N)(=O)=O)c2)c2nc3ccccc3nc12	17.2
COc1ccccc1CN(C)C(=O)c1cccc(S(=O)(=O)N2CCc3ccccc3C2)c1	-4.08
Cc1ccc(CN2CC(C(=O)N3CCN(S(=O)(=O)c4c(F)cccc4F)CC3)CC2=O)cc1 (centres unmarked)	-2.83
CCOC(=O)N1CCC(NC(=O)CC2C(=O)NCCN2Cc2ccc(C)cc2)CC1 (centres unmarked)	-27
O=C(CCS(=O)(=O)c1ccc(Br)s1)NC1CCCCCC1	10.4
CCc1nc(Nc2ccc(O)cc2)c2oc3ccccc3c2n1.Cl	-13.6
CC(/C=C/c1ccc2c(c1)OCO2)=N\NC(=O)C(O)c1ccccc1 (centres unmarked)	8.18
CCOC(=O)c1sc(=S)n(-c2cc(F)ccc2F)c1N	10.1
Cc1c(NC(=O)CN2C(=O)C(=O)c3ccccc32)c(=O)n(-c2ccccc2)n1C	6.31
Cc1cc(C(=O)CN2C(=O)NC3(CCCc4sccc43)C2=O)c(C)n1-c1ccccc1 (centres unmarked)	11.5
O=C(Nn1cnc2ccccc2c1=O)c1ccc([N+](=O)[O-])cc1	7.84
COc1ccc(C(=O)/C=C/c2cn(CN3CCN(C)CC3)c3ccccc23)cc1	-30.4
CCC(C)(C)NC(=O)CN(C(=O)CCC(=O)Nc1nccs1)c1ccc(C)cc1	-1.36
Cc1cc(OCC(=O)N2CCN(c3ccc(F)cc3)CC2)c2c(C)cc(=O)oc2c1	10.7
NC(=O)Cc1ccc(C(=O)c2ccc(Cl)cc2Cl)s1	1.46
Cc1ccc(CNS(=O)(=O)c2ccc3c(c2)CCN3C(=O)C2CCC2)cc1	4.29
COC(=O)c1c(NC(=O)CC2SC(N)=NC2=O)sc(C)c1C (centres unmarked)	10.5

Compound	hERG current change (%, negative = inhibition) at 10uM [%]
COC(=O)CCC(=O)OC1(C)C(=O)C=C2C=C(C3CC3)N(c3ccc(CO)cc3)C=C2C1=O (centres unmarked)	22.6
CC(=O)n1cc(C(C[N+](=O)[O-])SCCN)c2ccccc21.Cl (centres unmarked)	-9.3
C[C@H](NC(=O)OC(C)(C)C)C(=O)N/N=C/c1ccc2nccnc2c1	21.7
CC(C)c1ccc(-c2nc(N3CCCC3)nc3n[nH]c(N)c23)cc1	-8.1
COC(CNC(=O)c1cccc2c1C(=O)N(Cc1cccnc1)C2)OC	-15.3
CC1CCCN(C(=O)c2cc3c(-c4ccc(Cl)cc4)nn(C)c3s2)C1 (centres unmarked)	1.28
CCOc1ccc(/C=N/NC(=O)CSc2ccccn2)cc1O	-0.674
Cc1ccccc1NS(=O)(=O)c1nnc(NC(=O)c2ccccc2F)s1	10.7
Nc1ccc(-c2cnc[nH]2)cc1[N+](=O)[O-]	-0.302
CC(=O)NCCc1nc2cc(NC(=O)c3ccc([N+](=O)[O-])cc3)ccc2n1C	7.72
Cc1ccc(S(=O)(=O)N2CCC(=O)N(C(COCc3ccc(Cl)cc3Cl)Cc3ccccc3)CC2)cc1 (centres unmarked)	7.9
CCO[C@@H]1OC(C(=O)N2CCN(Cc3ccccc3)CC2)=C[C@H](c2ccccc2)[C@H]1CCCO	0.741
CCOC(=O)c1ccc(-c2ccc(/C=N/NC(=O)c3cncc(Br)c3)o2)cc1	0.672
COc1ccccc1CNC(=O)Cc1ccc(C)cc1	-6.75
CCCCn1c(N)c(N(CCOC)C(=O)c2cccc(S(=O)(=O)N3CCCCC3)c2)c(=O)[nH]c1=O	8.89
CN1C(=O)CC(c2cn(Cc3ccccc3)c3ccccc23)C1=O (centres unmarked)	-0.956
COc1ccccc1C(NC(C)=O)c1cc(Cl)c2cccnc2c1O (centres unmarked)	7.78
O=C(O)c1ccc(NC(=S)NC(=O)c2ccc3ccccc3c2)cc1	-5.69
O=C(O)CC1(CC(=O)NCc2ccccn2)CCCCC1	4.78
COC(=O)C1=C(C(=O)OC)[C@@H]2N(C)c3ccc(OC)cc3[C@@]23C[C@@H](C(=O)OC)N(C(=O)c2ccco2)C3=N1	-50.6
